Assay results reported in article PMC4336329 (PLoS ONE, 2015).
Out of some 310,000 compounds screened, about 2,200 (0.71%) showed an effect of 50% or more. The effect is printed as a negative number. Some of the results follow.

target: human ether-à-go-go-related gene (hERG) potassium channel (human, UniProt Q12809); test: primary screen, population patch clamp on CHO cells stably expressing hERG
Sequence (Q12809 whole entry, looked up): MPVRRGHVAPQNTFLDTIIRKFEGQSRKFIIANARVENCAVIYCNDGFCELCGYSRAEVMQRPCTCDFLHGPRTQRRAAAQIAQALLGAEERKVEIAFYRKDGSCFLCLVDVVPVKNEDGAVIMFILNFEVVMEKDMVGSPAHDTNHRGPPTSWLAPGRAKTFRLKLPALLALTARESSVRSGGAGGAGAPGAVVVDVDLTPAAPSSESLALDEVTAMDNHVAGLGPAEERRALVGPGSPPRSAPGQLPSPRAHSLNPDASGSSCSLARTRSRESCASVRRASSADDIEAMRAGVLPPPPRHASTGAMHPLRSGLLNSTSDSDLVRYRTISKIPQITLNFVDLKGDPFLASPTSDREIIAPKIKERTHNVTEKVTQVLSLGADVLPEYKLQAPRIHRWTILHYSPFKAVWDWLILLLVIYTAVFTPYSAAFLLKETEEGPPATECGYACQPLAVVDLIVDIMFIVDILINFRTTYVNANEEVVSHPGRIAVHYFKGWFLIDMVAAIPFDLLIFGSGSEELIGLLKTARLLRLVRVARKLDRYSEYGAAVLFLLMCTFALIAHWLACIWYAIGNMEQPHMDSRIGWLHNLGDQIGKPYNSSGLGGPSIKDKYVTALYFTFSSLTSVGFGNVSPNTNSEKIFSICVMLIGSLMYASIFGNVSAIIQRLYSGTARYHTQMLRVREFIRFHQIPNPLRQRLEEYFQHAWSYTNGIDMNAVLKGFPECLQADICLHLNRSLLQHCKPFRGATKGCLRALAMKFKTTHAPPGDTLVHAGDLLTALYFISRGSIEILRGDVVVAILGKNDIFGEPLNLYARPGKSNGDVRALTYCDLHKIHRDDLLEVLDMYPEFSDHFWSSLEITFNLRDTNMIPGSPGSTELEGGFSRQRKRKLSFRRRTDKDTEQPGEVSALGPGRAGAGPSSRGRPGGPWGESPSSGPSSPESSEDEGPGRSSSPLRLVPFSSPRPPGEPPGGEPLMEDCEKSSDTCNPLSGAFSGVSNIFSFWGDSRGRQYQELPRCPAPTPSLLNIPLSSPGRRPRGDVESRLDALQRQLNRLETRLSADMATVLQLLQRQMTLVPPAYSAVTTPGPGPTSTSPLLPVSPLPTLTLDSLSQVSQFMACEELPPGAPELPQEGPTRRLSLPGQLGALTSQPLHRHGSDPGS

Row | Compound | hERG current change (%, negative = inhibition) at 1uM [%]
1 | CCOc1ccc(S(=O)(=O)Nc2ccccc2SC)c2cccnc12 | 5.43
2 | CCOC(=O)c1c(NC(=O)CSc2nnc(-c3ccccc3)n2CC)sc(C(C)=O)c1C | 4.46
3 | CCOC(=O)Nc1oc2ccccc2c(=O)c1CN1CCOCC1 | 10.9
4 | COc1ccccc1C(C)NCC(=O)NCc1ccc(C)cc1 (stereo not shown) | 3.71
5 | CC(=O)N1c2ccc(S(=O)(=O)N3CCC(C(=O)NC4CCC(C)CC4)CC3)cc2CC1C (stereo not shown) | 14
6 | CC(C)Oc1ccc(CCN=C(N)N=C(N)N)cc1Cl.Cl | 12.5
7 | O=C(CCN1CCCCC1c1cccnc1)NCc1ccccc1 (stereo not shown) | 7.17
8 | CCn1c(=O)c2cc(C(=O)N(C)c3ccccc3F)sc2c2ccccc21 | 0.0672
9 | CCn1c(N)c(C(=O)NCC2CCCO2)sc1=S (stereo not shown) | 15
10 | COC(=O)CCC(=O)Nc1ccccc1C(=O)Nc1ccccc1 | 12.6
11 | COc1ccc(CN2C(=O)CS/C2=N/N=C/c2ccccc2)cc1 | 10.8
12 | Cl.O=C(CN1CCN(C2CCCCC2)CC1)Nc1ccccc1-c1ccccc1 | -70
13 | O=C(COC(=O)C1CC1)Nc1ccc2[nH]c(=O)[nH]c2c1 | 11.1
14 | CC(C)c1nc2sc3c(c2c(=O)o1)CCCC3 | 9.49
15 | CCC(=O)N1CCN(c2ccccc2NC(=O)c2ccc([N+](=O)[O-])o2)CC1 | -60.5
16 | NC(=O)CSc1nnc2ccc(-c3ccco3)nn12 | 15.4
17 | Cc1ccc(NC(=O)Nc2cccnc2)cc1Cl | 3.43
18 | CC(C)(C)C(=O)Nc1nnc(SCc2ccc(F)cc2)s1 | -1.96
19 | O=C(CSC1=NS(=O)(=O)c2ccccc2N1)N1CCCCC1 | 13
20 | CCOc1ccc(N(CC(=O)NCc2ccc(OC)cc2)S(=O)(=O)c2c(C)[nH]c(=O)[nH]c2=O)cc1 | 14

Row | Compound | hERG current change (%, negative = inhibition) at 1uM [%]
21 | CC(NS(=O)(=O)c1ccccc1)c1n[nH]c(=S)n1-c1ccccc1 (stereo not shown) | 1.37
22 | Cn1c(=O)c2c(nc(CN3CCN(C(=O)c4ccco4)CC3)n2CCc2ccccc2)n(C)c1=O | -28.8
23 | CCOC(=O)c1ccc(N2NC(=O)/C(=C/c3ccc(OC(=O)c4ccco4)c(OC)c3)C2=O)cc1 | 13.3
24 | COc1ccc(CS(=O)c2nc(C)cc(C)c2S(C)(=O)=O)cc1 (stereo not shown) | 7.52
25 | CCc1ccc(N2CC34C=CC(O3)C(C(=O)OC(C)C)C4C2=O)cc1 (stereo not shown) | 10.8
26 | O=S(N1CCCCCC1)C12CC3CC(CC(C3)C1)C2 (stereo not shown) | 8.91
27 | COc1ccc(OC)c(NC2=NCCCS2)c1 | 6.68
28 | O=C(CSS(=O)(=O)[O-])N1CCN(C(=O)c2ccoc2)CC1.[Na+] | 15.5
29 | O=C1C2N=NN(CC(=O)N3N=C(c4cccc5ccccc45)CC3c3ccccc3)C2C(=O)N1c1ccccc1 (stereo not shown) | 4.13
30 | Cc1cc(C)n(CCN(C)c2nc3nonc3nc2NC2CC2)n1 | 20.9
31 | Cc1ccc(NC(=O)CS(=O)(=O)c2cn(C)c3ccccc23)c(C)c1 | 7.5
32 | Cc1nc2scc(-c3ccccc3)c2c(=O)n1/N=C/c1ccco1 | -1.76
33 | Clc1cc2c(c(Cn3cnc4ccccc43)c1)OCOC2 | 16.7
34 | CC1(C)C2CCC1(C)C([NH2+]c1ccccc1)C2.[Cl-] (stereo not shown) | 14.4
35 | COc1cccc(NC(=S)NC2CC3CCCC(C2)N3C2CCCC2)c1 (stereo not shown) | -1.53
36 | CS(=O)(=O)O.c1ccc2c(c1)CCc1c(-c3ccncc3)n[nH]c1-2 | 5.71
37 | O=S(=O)(c1ccccc1)N1CCC(O)(CSc2ccc(F)cc2)CC1 | 12.6
38 | CC(CNS(=O)(=O)c1ccc(Br)cc1)CN(C)C (stereo not shown) | 1.07
39 | O=c1cc(N2CCN(c3ccccc3)CC2)[nH]c(=O)n1C1CCCCC1 | 11.3
40 | Cc1c(NC(=O)c2cccc(NS(C)(=O)=O)c2)c(=O)n(-c2ccccc2)n1C | 3.72

Row | Compound | hERG current change (%, negative = inhibition) at 1uM [%]
41 | CCc1ccc(OCCCC(=O)Nc2nnc(C3CCCO3)s2)cc1 (stereo not shown) | 13.5
42 | CC(=O)Nc1ccc(NC(=O)N(c2ccccc2)c2ccccc2)cc1 | 12.2
43 | COc1ccccc1CNCc1cccs1.Cl | 0.645
44 | Cc1onc(-c2ccccc2Cl)c1C(=O)N1CCN(C=O)CC1 | 11.1
45 | O=C(Cc1ccccc1F)Nc1nc(-c2cccnc2)cs1 | -5.73
46 | COc1ccc(NC(=O)CSc2nnc(-c3ccncc3)o2)c(OC)c1 | 8.8
47 | O=C(CSc1nnc2c(Cl)cc(Cl)cn12)N1CCN(S(=O)(=O)c2ccccc2)CC1 | 1.61
48 | CN(C)S(=O)(=O)c1ccc2c(c1)C(CC(=O)O)NC2=O (stereo not shown) | 11.2
49 | CCC(=O)Nc1cccc(-c2ccc(N3CCCCC3)nn2)c1 | 5.2
50 | CCCCc1nnc(NC(=O)Cc2ccc(OC)c(S(=O)(=O)N3CCOCC3)c2)s1 | 13.9
51 | O=C(/C=C/c1ccc(O)c(O)c1)c1ccc(S(=O)(=O)N2CCCCCC2)cc1 | 22.8
52 | COc1ccc(NC(=O)C2=C(C)C(=O)OC23CCC(C)CC3)cc1Cl (stereo not shown) | 9.36
53 | CCOc1ccc2c(c1)-c1c(ssc1=S)C(C)(C)N2C | 1.36
54 | O=C(/C=N/O)Nc1ccccc1 | -2.37
55 | Cc1cccc(C)c1NC(=O)CNC(=O)Cc1ccc(Br)cc1 | 14
56 | COc1cc2cc(CN(CCO)S(=O)(=O)c3ccccc3Cl)c(=O)[nH]c2cc1OC | 4.93
57 | COc1ccc(N2CC(C(=O)Nc3ncccc3C)CC2=O)cc1 (stereo not shown) | -0.346
58 | CCOc1ccc(CN2CCN(Cc3cnn(CC)c3C)CC2CCO)cc1 (stereo not shown) | 0.806
